PubChem BioAssay (NCI)
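Protocol summary: plate cells (96-well), add compound at 5 concentrations, incubate 48 h, interpolate endpoints linearly. The concentration for 50% growth inhibition is given as GI50.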 Not every entry of the source has a single result; some have several. Only these are listed. An entry can have further records. For part of these data: The tests behind the records often covered other concentration ranges, not given here; some values may only mark the edge of a range. For part of these data: The values listed for one entry are repeats in other runs, samples, wells, individuals or studies. Records carry a tag for their origin. Letters hold for one entry only.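 The concentration for full growth arrest is given as TGI.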

How the values were obtained:
Assay in all cases: NCI anticancer screen, dose series, 48 h
[1] = test system: A498 renal
[2] = test system: A549 NSCLC
[3] = test system: ACHN renal
[4] = test system: BT-549 breast
[5] = test system: COLO 205 colon
[6] = test system: DU-145 prostate
[7] = test system: HCT-116 colon
[8] = test system: HCT-15 colon
[9] = test system: HOP-62 NSCLC
[10] = test system: HS 578T breast
[11] = test system: HT29 colon
[12] = test system: K-562 leukemia
[13] = test system: KM12 colon
[14] = test system: LOX IMVI melanoma
[15] = test system: M14 melanoma
[16] = test system: MCF7 breast
[17] = test system: MDA-MB-435
[18] = test system: NCI-H460 lung
[19] = test system: OVCAR-5 ovarian
[20] = test system: PC-3 prostate
[21] = test system: RXF 393 renal
[22] = test system: SF-295 CNS
[23] = test system: SF-539 CNS
[24] = test system: SK-MEL-28 melanoma
[25] = test system: SN12C renal
[26] = test system: SNB-75 CNS
[27] = test system: SW-620 colon
[28] = test system: T-47D breast
[29] = test system: UACC-257 melanoma
[30] = test system: UACC-62 melanoma
[31] = test system: HOP-92 NSCLC
[32] = test system: MALME-3M melanoma
[33] = test system: NCI-H226 lung
[34] = test system: NCI-H23 lung
[35] = test system: NCI/ADR-RES ovarian
[36] = test system: SK-MEL-2 melanoma
[37] = test system: SK-MEL-5 melanoma
[38] = test system: U251 CNS
[39] = test system: CAKI-1 renal
[40] = test system: CCRF-CEM leukemia
[41] = test system: DLD-1 colon
[42] = test system: EKVX NSCLC
[43] = test system: HL-60(TB) leukemia
[44] = test system: IGROV1 ovarian
[45] = test system: M19-MEL melanoma
[46] = test system: OVCAR-4 ovarian
[47] = test system: OVCAR-8 ovarian
[48] = test system: RPMI-8226 leukemia
[49] = test system: SF-268 CNS
[50] = test system: SK-OV-3 ovarian
[51] = test system: SR leukemia
[52] = test system: UO-31 renal

With `CC(C)c1cc(CNc2nc(Nc3cc(C4CC4)[nH]n3)cc(N3CCN(C)CC3)n2)on1` the GI50 [1] was 711 nM [sample A, 1 test] and 10.3 nM [sample B, mean of 2 tests], the TGI [1] was 2.63 µM [sample A, 1 test] and 122 nM [sample B, mean of 2 tests] and the GI50 [2] was 1.41 µM [sample A, 1 test] and 85.3 nM [sample B, mean of 2 tests]. The GI50 [3] was 2.83 µM [sample A, 1 test] and 259 nM [sample B, mean of 2 tests], the GI50 [4] was 4 µM [sample A, 1 test] and 152 nM [sample B, mean of 2 tests] and the GI50 [5] was 344 nM [sample A, 1 test] and 16.9 nM [sample B, mean of 2 tests]. For the same compound, the TGI [5] was 1.8 µM [sample A, 1 test] and 87.8 nM [sample B, mean of 2 tests], the TGI [6] was > 10 µM [sample A, 1 test] and 657 nM [sample B, mean of 2 tests] and the GI50 [7] was 1.95 µM [sample A, 1 test] and 44 nM [sample B, 1 test]. The GI50 [8] was > 10 µM [sample A, 1 test] and 869 nM [sample B, mean of 2 tests], the GI50 [9] was 2.02 µM [sample A, 1 test] and 49.1 nM [sample B, mean of 2 tests] and the TGI [9] was > 10 µM [sample A, 1 test] and 509 nM [sample B, mean of 2 tests]. For the same compound, the GI50 [10] was 3.04 µM [sample A, 1 test] and 99.4 nM [sample B, mean of 2 tests], the TGI [10] was > 10 µM [sample A, 1 test] and 469 nM [sample B, mean of 2 tests] and the GI50 [11] was 352 nM [sample A, 1 test] and 31.4 nM [sample B, 1 test]. For the same compound, the TGI [11] was > 10 µM [sample A, 1 test] and 244 nM [sample B, 1 test], the GI50 [12] was 3.58 µM [sample A, 1 test] and < 16.6 nM [sample B, mean of 2 tests] and the GI50 [13] was 2.76 µM [sample A, 1 test] and < 10 nM [sample B, 1 test]. For the same compound, the GI50 [14] was 653 nM [sample A, 1 test] and 35.2 nM [sample B, mean of 2 tests], the TGI [14] was 3.43 µM [sample A, 1 test] and 200 nM [sample B, mean of 2 tests] and the GI50 [15] was 2.14 µM [sample A, 1 test] and 150 nM [sample B, mean of 2 tests]. The GI50 [16] was 464 nM [sample A, 1 test] and < 10.5 nM [sample B, mean of 2 tests], the GI50 [17] was 4.49 µM [sample A, 1 test] and 425 nM [sample B, mean of 2 tests] and the GI50 [18] was 2.91 µM [sample A, 1 test] and < 12.3 nM [sample B, mean of 2 tests]. For the same compound, the GI50 [19] was 756 nM [sample A, 1 test] and 30.1 nM [sample B, mean of 2 tests], the GI50 [20] was 4.97 µM [sample A, 1 test] and 174 nM [sample B, mean of 2 tests] and the GI50 [21] was 669 nM [sample A, 1 test] and 27.1 nM [sample B, 1 test]. The TGI [21] was 4.36 µM [sample A, 1 test] and 198 nM [sample B, 1 test], the GI50 [22] was 2.42 µM [sample A, 1 test] and < 50.1 nM [sample B, mean of 2 tests] and the GI50 [23] was 2.2 µM [sample A, 1 test] and 114 nM [sample B, mean of 2 tests]. For the same compound, the GI50 [24] was > 10 µM [sample A, 1 test] and 367 nM [sample B, mean of 2 tests], the GI50 [25] was 2.21 µM [sample A, 1 test] and 216 nM [sample B, mean of 2 tests] and the GI50 [26] was 1.35 µM [sample A, 1 test] and 38.2 nM [sample B, mean of 2 tests]. For the same compound, the TGI [26] was 5.44 µM [sample A, 1 test] and 245 nM [sample B, mean of 2 tests], the GI50 [27] was 2.27 µM [sample A, 1 test] and 28.7 nM [sample B, mean of 2 tests] and the GI50 [28] was > 10 µM [sample A, 1 test] and 625 nM [sample B, mean of 2 tests]. The GI50 [29] was 8.71 µM [sample A, 1 test] and 190 nM [sample B, mean of 2 tests] and the GI50 [30] was 3.49 µM [sample A, 1 test] and 127 nM [sample B, mean of 2 tests].

With `O=C1C=CN(C2OC(CO)C(O)C2O)C(=O)C1` (configuration not stated) the TGI [31] was 194 µM [1 test] and 2.1 mM [mean of 6 tests], the TGI [32] was 55 µM [1 test] and 1.72 mM [mean of 8 tests] and the TGI [25] was 119 µM and > 2.12 mM.

For `COc1ccc2[nH]c(-c3cccc(N(C)C)c3)cc(=O)c2c1`, the TGI [5] was 464 nM and > 100 µM, the TGI [6] was 3.03 µM and > 100 µM and the TGI [7] was 4.43 µM and > 100 µM. The TGI [8] was 1.5 µM and 58.7 µM, the TGI [31] was 2.87 µM and > 100 µM and the TGI [13] was 9.65 µM and > 100 µM. For the same compound, the TGI [14] was 3.14 µM and > 100 µM, the TGI [33] was 885 nM and > 100 µM and the TGI [34] was 1.99 µM and > 100 µM. The TGI [35] was 486 nM and > 100 µM, the TGI [22] was 988 nM and 59.8 µM and the TGI [23] was 361 nM and 7.45 µM. The TGI [36] was 6.82 µM and > 100 µM, the TGI [37] was 4.61 µM and > 100 µM and the TGI [38] was 2.31 µM and 24.6 µM.

`CC[C@@H](C)[C@H]([C@H](CC(=O)N1CCC[C@@H]1[C@@H](OC)[C@H](C)C(=O)N[C@H](Cc1ccccc1)c1nccs1)OC)N(C)C(=O)[C@H](NC(=O)[C@@H](C(C)C)N(C)C)C(C)C` was tested, and the TGI [1] was 1.51 nM and 214 nM, the TGI [2] was 4.25 µM [1 test] and > 100 µM [mean of 3 tests] and the TGI [39] was 117 nM [1 test] and 8.25 nM, 99.6 µM [mean of 4 tests]. For the same compound, the TGI [40] was 4.25 µM [1 test] and 2.59 nM, < 215 nM [mean of 3 tests], the TGI [41] was 8.65 nM and 1.59 µM and the GI50 [42] was 0.425 nM [1 test] and 3.35 µM [mean of 4 tests]. The TGI [42] was 8.03 nM, 4.25 µM, > 100 µM, the TGI [43] was 0.29 nM and 49.5 nM and the TGI [9] was 4.21 nM and > 82.2 µM. The TGI [31] was 8.37 nM, 4.25 µM, > 93.4 µM, the TGI [44] was 6.31 nM, 4.25 µM, > 100 µM and the TGI [13] was 0.404 nM and 4.25 µM. The TGI [14] was 4.25 µM [1 test] and > 85.1 µM [mean of 3 tests], the TGI [15] was 2.76 nM and 473 nM and the TGI [45] was 5.16 nM and 4.25 µM. The TGI [32] was 4.25 µM [1 test] and > 71.6 µM [mean of 4 tests], the TGI [33] was 0.688 nM and 426 nM and the TGI [46] was 4.25 µM [1 test] and > 100 µM [mean of 4 tests]. The TGI [47] was 4.6 nM, 85.2 nM, 893 nM, the TGI [48] was 4.25 µM [1 test] and > 100 µM [mean of 2 tests] and the TGI [21] was 3.72 nM and > 68.5 µM. The TGI [49] was 9.41 nM, 54.7 nM, > 76.9 µM, the TGI [22] was 1.1 nM and 627 nM and the TGI [36] was 2.94 nM and 5.93 µM. The TGI [50] was > 100 µM [mean of 2 tests] and 2.18 nM [mean of 4 tests], the TGI [26] was 2.65 nM, 655 nM, > 100 µM and the TGI [51] was 2.52 nM and > 4.64 µM. The TGI [27] was 4.25 µM [1 test] and > 100 µM [mean of 4 tests], the TGI [29] was 4.25 µM [1 test] and > 100 µM [mean of 4 tests] and the TGI [30] was 4.25 µM [1 test] and > 62.5 µM [mean of 3 tests]. For the same compound, the TGI [52] was 9.36 nM and > 72.2 µM.
